Structures are written as SMILES. The whole screen tested about 340,000 compounds, of which about 6,900 (2%) were called active. Rule as the data show it: active = inhibition above about 30%; inactive = below that, where a call was filed. Only a part is listed here, and it is no random draw. Entries without a call were filed so in the source.

Chain of UniProt P14416 (P14416 whole entry, looked up): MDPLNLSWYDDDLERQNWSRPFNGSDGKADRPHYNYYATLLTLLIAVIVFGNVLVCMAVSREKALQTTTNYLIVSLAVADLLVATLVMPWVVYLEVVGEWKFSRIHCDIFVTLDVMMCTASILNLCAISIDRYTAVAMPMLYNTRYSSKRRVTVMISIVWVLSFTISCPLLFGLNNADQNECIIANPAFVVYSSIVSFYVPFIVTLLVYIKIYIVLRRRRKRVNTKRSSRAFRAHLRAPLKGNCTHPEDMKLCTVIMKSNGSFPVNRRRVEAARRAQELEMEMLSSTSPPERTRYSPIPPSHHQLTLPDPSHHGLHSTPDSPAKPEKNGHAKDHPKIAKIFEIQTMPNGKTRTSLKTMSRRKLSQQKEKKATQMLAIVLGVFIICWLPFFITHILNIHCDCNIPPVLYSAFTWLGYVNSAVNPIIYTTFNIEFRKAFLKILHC

This test addresses D(2) dopamine receptor (Homo sapiens) (UniProt P14416). Briefly: HTS Assay for Allosteric Antagonists of the Human D2 Dopamine Receptor: Primary Screen for Antagonists. Also: 0% is about no effect. Conditions: HEK293 TREx D2 cells, calcium flux, dopamine EC80; at 10 µM; stronger effect = higher value. A digest of the protocol:
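Cells plated overnight at 30 C with tetracycline; no-wash calcium dye, 30–90 min RT; 10 s baseline; compound pinned; 180 s read; EC80 dopamine added; another 180 s read.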
Take `CCC(CC)C(=O)Nc1cccc(-c2nc3ncccn3c2C)c1`: the inhibition (commonly the change of the read-out against control, counted positive when it falls) is -3.05%.
For the compound `CCc1ccc(CNC(=O)Cn2nc(C)c3c(C)n(-c4ccc(C)cc4)nc3c2=O)cc1`, the inhibition worked out at 5.08%.
Take `COc1cccc(-c2nn(C)c3sc(C(=O)NCc4ccc(C)cc4)cc23)c1`: the inhibition was -7.74%.
As to `CCN(CC)C(=O)c1sc2c(c1C)c(=O)n(-c1ccc(OC)cc1OC)c(=O)n2Cc1cc(C)ccc1C`, the inhibition came to 11.5%.
For the compound `CCOC(=O)c1c(C)n(C)c2ccc(OCC(O)CNCCc3ccccc3)cc12` (stereo not drawn), the inhibition was active: 30.7%.
In the case of `CC(=O)N1c2ccc(S(=O)(=O)NCc3ccc(Cl)cc3)cc2CC1C` (stereo not drawn), the inhibition is -17.8%.
For `CC(=O)Nc1ccccc1OCc1cc(=O)n2c(C)csc2n1`, the inhibition was -0.857%.
To `Cc1ccc(-c2nc(C)c(CCNC(=O)C(=O)Nc3ccc(C)c(Cl)c3)s2)cc1` belongs -27.7%; to `CCOC(=O)c1cc(S(=O)(=O)NCc2ccc(F)cc2)[nH]n1`, 13.9%.
To `COCCCNC(=O)CSc1nc(-c2ccc(OC)cc2)[nH]c1-c1ccc(OC)cc1` belongs -0.151%.
In the case of `COc1ccc2oc(=O)cc(CN3CCN(c4ccccc4OC)CC3)c2c1`, the inhibition amounted to 3.98%.
In the case of `CCOC(=O)c1c(C)[nH]c(CCC(=O)Nc2ccccc2OCC)c1C`, the inhibition was -27.6%.
Regarding `CC(=O)N1CCCc2cc(S(=O)(=O)N3CCC(C(=O)NCc4ccccc4Cl)CC3)ccc21`, the inhibition is -13.7%.
Consider `COc1ccc(C(=O)Nc2cc3cc(Cl)ccc3oc2=O)cc1OC`, for which the inhibition is -1.63%.
In the case of `Cc1nn(CCC(=O)N2CCN(c3ccccc3F)CC2)c(C)c1S(=O)(=O)N1CCCC1`, the inhibition came to 2.71%.
To `NS(=O)(=O)c1ccc(NC(=O)COC(=O)c2ccco2)cc1` belongs active: 38.5%; to `CN(C)c1ccc(CNC(=O)Cn2c(=O)oc3cc(S(=O)(=O)NCc4ccccc4)ccc32)cc1`, -1.67%; to `Cc1ccccc1NS(=O)(=O)c1ccc(C)c(NS(C)(=O)=O)c1C`, active: 32.8%.
As to `CCCC12CN3CC(C)(CN(C1)C3c1cn(CC)c3ccccc13)C2=O` (stereo not drawn), the inhibition is 1.21%.
To `CCN1CCN(c2cc(C)c3cc(NC(=O)c4cc(Br)ccc4Cl)ccc3n2)CC1` belongs -4.75%; to `CCOc1ccccc1CNC(=O)CCCn1nc(C)c2sc3ccccc3c2c1=O`, 12.9%.
To `Cc1ccc(OCc2ccc(-c3nc(C#N)c(N4CCN(c5cccc(Cl)c5)CC4)o3)o2)cc1` belongs -0.221%.
Turning to `Cc1cccc(CSc2nc3ccncc3n2Cc2ccc(C(=O)O)cc2)c1`, the inhibition is -14.2%.
As to `COc1ccccc1NC(=O)Cn1c(=O)n(CCc2ccccc2)c(=O)c2sc3ccccc3c21`, the inhibition worked out at 3.19%.
Take `COc1cc(NC(=O)Cn2nc(C(F)(F)F)c3c2CCCC3)cc(OC)c1OC`: the inhibition is -1.02%.
Turning to `Cc1cccc(OCC(=O)Nc2c(C(=O)N3CCN(c4ccccc4)CC3)oc3ccccc23)c1`, the inhibition was -8.43%.
Turning to `COc1ccc(N2CCN(c3oc(-c4ccccc4C)nc3S(=O)(=O)c3ccccc3)CC2)cc1`, the inhibition turned out to be 2.66%.
In the case of `COc1ccc(/C=C2\SC(N3CCc4ccccc4C3)=NC2=O)cc1OC`, the inhibition is active: 53.1%.
`C=CCc1ccc(OCCCCN2CC(C)CC(C)C2)c(OC)c1` (stereo not drawn): the inhibition is active: 38.5%.
Take `CCc1nc2ccccc2n1CCCCOc1ccc(Cl)cc1`: the inhibition is -14.6%.
Consider `COc1cc(NC(=O)Cn2nc(Cc3cccnc3)c3ccccc3c2=O)cc(OC)c1OC`, for which the inhibition is -0.388%.
To `CCCCN(CCCC)S(=O)(=O)c1ccc(C(=O)Nc2sc3c(c2C(N)=O)CCN(CC)C3)cc1` belongs -15.8%; to `CC(C)c1ccc(C(=O)Nc2ccc(-c3nc4ccccc4s3)c(Cl)c2)cc1`, 5.58%.
Consider `Cn1cc(S(=O)(=O)N2CCCCCC2)cc1C(=O)Nc1ccccc1F`, for which the inhibition turned out to be 21.4%.
To `COc1ccc(-c2nc(Cn3c(SCc4cccc(F)c4)nc4cccnc43)c(C)o2)cc1` belongs -3.22%; to `COc1cccc(C(=O)NCC(c2ccc(N(C)C)cc2)N2CCc3ccccc32)c1OC` (stereo not drawn), -20%.
On to `Cc1cccc(C)c1NC(=O)N1CCC(C(N)=O)(N2CCCCC2)CC1`, for which the inhibition was -3.92%.
In the case of `O=C(Nc1ccc(F)cc1F)c1cc2ccc3cccnc3c2[nH]1`, the inhibition stood at 9.16%.
`CCOC(=O)c1ccc(NC(=O)c2c(NCc3cccc(OC)c3)sc3c2CCC3)cc1`: the inhibition is 9.9%.
As to `Cc1ccccc1Nc1cc(C(=O)NC2CCC(C)CC2)c2ccccc2n1` (stereo not drawn), the inhibition is 4.09%.
`COc1cccc(NC(=O)C2CC(=O)N(Cc3ccco3)C2)c1` (stereo not drawn): the inhibition was active: 36.6%.
`COC(=O)c1cc(OC)c(OC)c(OC)c1NC(=O)c1cc(=O)n(C)c(=O)n1C`: the inhibition is 14.7%.
With `CCOc1ccc(NC(=O)CSc2ccc3ccccc3n2)cc1`, the inhibition worked out at 12.4%.
Consider `COCCCNC(=O)CN1C(=O)COc2ccc(S(=O)(=O)N3CCOCC3)cc21`, for which the inhibition was found to be 5.61%.
In the case of `COC(=O)CSCc1nc(-c2ccc(C(=O)OC)cc2)oc1C`, the inhibition was -3.24%.
Consider `O=C(CCNS(=O)(=O)c1cccc2nonc12)Nc1ccc(F)cc1`, for which the inhibition came out at 12.4%.
To `COc1ccc(N2CCN(C(=O)c3cn(C4CCCCC4)c(=O)c4c3c3ccccc3n4C)CC2)cc1` belongs -6.44%; to `CCOc1ccccc1NC(=O)c1c(NC(=O)Cc2ccccc2)sc2c1CCCC2`, -9.42%.
In the case of `Cc1cc(C)c(S(=O)(=O)Nc2ccc(-c3ccc(N4CCCCC4)nn3)cc2)c(C)c1`, the inhibition worked out at 6.02%.
To `Cn1cc(C(=O)N2CCN(c3cccc(Cl)c3)CC2)c(=O)c2cc(S(=O)(=O)N3CCCC3)ccc21` belongs 14.4%; to `COc1ccc(C)cc1NC(=O)CN1CCCN(S(=O)(=O)c2ccc(Br)cc2)CC1`, -7.83%.
To `COc1cc2c(cc1OC)C(COc1ccccc1OC)N(C(=O)c1ccc(S(=O)(=O)N3CCCC3)cc1)CC2` (stereo not drawn) belongs -16.3%.
On to `Cc1cc(C)nc(/N=C(\N)Nc2ccc(OCc3ccccc3)cc2)n1`, for which the inhibition is active: 69.8%.
`O=C(Cn1ncc2c3ccccc3n(Cc3ccc(F)cc3)c2c1=O)NC1CCCCCC1`: the inhibition turned out to be 6.9%.
With `CCOC(=O)c1cc(-c2ccccc2)n(-c2cccc(C(=O)NC(C)CC)c2)c1C` (stereo not drawn), the inhibition is -27.5%.
As to `Cc1ccc(N(C)S(=O)(=O)c2ccc(-c3cnc(C4CC4)o3)cc2)cc1`, the inhibition is -4.76%.
For `COc1ccc(Nc2nc(-c3ccccc3)c3cc(Br)ccc3n2)cc1`, the inhibition is -1.16%.
Regarding `CC(C)Oc1ccc(CNC(=O)c2ccc3c(c2)N(Cc2ccc(F)cc2)CCS3)cc1`, the inhibition worked out at 17.8%.
For `Clc1ccccc1CNc1nc2ccccc2c2nc(-c3ccccc3)nn12`, the inhibition is 5.91%.
With `O=C(C1CCCCC1)N(Cc1cccnc1)c1nc2c(F)cccc2s1`, the inhibition was found to be 18%.
As for `CC(C)(CC(=O)O)Cc1nc(-c2ccc(Cl)cc2)no1`, the inhibition was active: 43.6%.
With `COc1cc(C(=O)NC(=S)Nc2ccccc2N2CCCC2)cc(OC)c1OC`, the inhibition was active: 43.5%.
Turning to `CCN(CC)CCNC(=O)c1sc2nc(C)cc(C)c2c1-n1cccc1`, the inhibition is -4.8%.
On to `Cc1ccc2onc(CNC(=O)N(C)Cc3ccccc3)c2c1`, for which the inhibition is -7.06%.
Take `COc1ccc(NC(=O)Cn2ccn(Cc3ccccc3)c(=O)c2=O)cc1Cl`: the inhibition is -11.1%.
Regarding `CCOC(=O)c1ccc(NC(=O)c2cccc3c(=O)c4c([nH]c23)CCCC4)cc1`, the inhibition worked out at 13.8%.
Regarding `CCc1ccccc1NC(=O)Cn1c(C(=O)OC)cc2oc(C)cc21`, the inhibition was determined as 10.9%.
`O=C1c2[nH]nc(-c3ccccc3O)c2C(c2cccc(Br)c2)N1Cc1ccncc1` (stereo not drawn): the inhibition was 14.4%.
Take `CN(C(=O)CSc1cn(CC(=O)N2CCCC2)c2ccccc12)c1ccccc1`: the inhibition is 1.37%.
To `C=CCNc1nc(SC)nc2ccsc12` belongs active: 31.9%.
For `CCC(=O)Nc1cc(-c2nc3cc(C)cc(C)c3o2)ccc1C`, the inhibition was 10.2%.
In the case of `Cc1ccc(CSCCNC(=O)CSCc2ccc([N+](=O)[O-])cc2)cc1`, the inhibition is active: 31.7%.
To `CCCCOc1ccc(S(=O)(=O)Nc2ccc(-c3ccc(N4CCCCC4)nn3)cc2)cc1` belongs 26%.
With `CCn1cc(C(=O)N2CCN(Cc3ccc4c(c3)OCO4)CC2)c2cc(OC)c(OC)cc2c1=O`, the inhibition is active: 32.8%.
To `Cc1cc(Br)ccc1OCCOCCN1CCCC1` belongs active: 43.1%.
Consider `Cc1ccccc1OCC(=O)NCC(c1ccc(Cl)cc1)N1CCOCC1` (stereo not drawn), for which the inhibition came out at 11.3%.
`Cc1c(C(=O)N(C)c2ccccc2)sc2nc(-c3ccc(F)cc3)cn12`: the inhibition came to 6.32%.
To `Cc1cc(C)cc(NC(c2cccc(Cl)c2)c2nnc(-c3ccccc3)o2)c1` (stereo not drawn) belongs 19.7%; to `O=C(Nc1cccc2cccnc12)c1cccc2c(Br)cccc12`, 13.2%.
To `O=C1c2oc3ccccc3c(=O)c2C(c2ccccc2F)N1Cc1ccc2c(c1)OCO2` (stereo not drawn) belongs -9.68%; to `CCc1cc2c(cc3c(=O)n(CC(=O)NC4CCC(C)CC4)nc(CC)n32)s1` (stereo not drawn), 3.15%; to `COc1cccc(-c2n[nH]c3c2C(c2cccc(O)c2)N(C)C3=O)c1` (stereo not drawn), -9.56%.
Consider `Cc1onc(-c2ccccc2)c1C(=O)NNC(=S)NC(=O)c1ccc(Br)cc1`, for which the inhibition is active: 35.6%.
Turning to `CCS(=O)(=O)N1CC(=O)N(c2cccc(C)c2C)C(C)(C(=O)NC2CCCCCC2)C1` (stereo not drawn), the inhibition was -19.2%.
To `COc1ccc(CNC(=O)c2cnn(-c3ccc(OC)cc3)c2C2CCN(C(=O)OC(C)(C)C)CC2)cc1` belongs -1.05%; to `O=C(COC(=O)C1CCN(c2ccc(C(F)(F)F)cn2)CC1)NCc1cccc(Cl)c1`, active: 33.6%.
For `Cc1nc(SCC(=O)Nc2ccccc2Cl)cc(-c2ccccc2)n1`, the inhibition came to 18.6%.
Regarding `COc1cccc(NC(=O)CSc2cc(C)[nH]c(=O)n2)c1`, the inhibition is -15.5%.
In the case of `CCN(CC)c1nn2c(=O)c(C(=O)NCc3cccc(OC)c3OC)cnc2s1`, the inhibition is -0.154%.
On to `COCCCNC(=O)c1sc2nc(C)c(C(=O)Nc3ccc(Cl)cc3)c(-c3ccc(Br)cc3)c2c1N`, for which the inhibition is 11.8%.
For `Cc1cc(Br)ccc1NC(=O)CN1C(=O)c2cccnc2Sc2ccccc21`, the inhibition is -3.27%.
To `CCOc1ccc(C(=O)Nc2cc(-c3ccccc3)no2)cc1` belongs -2.33%; to `CCN(Cc1ccccc1)C(=O)c1cc2ccc3cccnc3c2[nH]1`, -15.5%.
Take `COc1ccccc1C(=O)N1CCC(N2CCN(c3ccccc3)CC2)CC1`: the inhibition was active: 68.8%.
As to `Cc1ccc2oc3c(c(=O)c2c1)C(c1cccc(O)c1)N(CCCN1CCOCC1)C3=O` (stereo not drawn), the inhibition turned out to be 2.72%.
Take `CCOc1ccc(CCNC(=O)c2ccc(C)c(-n3c(C)nc4cccnc43)c2)cc1OCC`: the inhibition was -1.05%.
For the compound `Cc1cccc(-c2nnc(SCC(=O)NC3CCCCC3)o2)c1`, the inhibition is 21%.
To `O=C1CN(C(=O)c2ccc(S(=O)(=O)N3CCCC3)cc2)C(c2ccc(F)cc2)c2cc(F)ccc2N1` (stereo not drawn) belongs -21.7%.

For the origin of these results see PubChem BioAssay AID485344 (National Center for Advancing Translational Sciences (NCATS), 2010).
